Source: the supplement of paper PMC10338343
± gives the standard deviation. The list shows a part of the results, in another mix than the full data.

System: MIWI (PIWIL1) piRISC loaded with L1MC piRNA (30 nt)
Experiment: pre-steady-state target cleavage rate (min^-1); MIWI and MILI are mouse PIWI proteins and EfPiwi is from a freshwater sponge; tags in brackets are library labels; higher = faster piRNA-guided slicing of the target
Settings: guide: L1MC piRNA 5'p-UAACUAAAUACUAUGCAAGCUGUAGGUCCU
In short: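 A burst-and-steady-state fit was used to obtain the pre-steady-state cleavage rate. The input data were sequencing reads of uncleaved targets, normalised to depth and to weakly complementary targets, from a […] transcribed, DNA-blocked target RNA library mixed with 1 nM active affinity-purified piRISC holding one synthetic guide, with or without 500 nM GTSF1 partner protein, in HEPES–potassium acetate buffer at 33 °C for 0–8 or 0–960 min. Three trials were pooled and k3 was capped at 0.0001 min^-1.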

[1] = auxiliary factor: 500 nM mouse GTSF1
[2] = auxiliary factor: none (no GTSF1)
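Note: 1 nM active piRISC with 0.1 nM target library at 33 °C single turnover.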

Sequence | pre-steady-state target cleavage rate [1] | pre-steady-state target cleavage rate [2]
UCCACCUACAGCUUGCAUAGUAUUUAGUA | 0.445 ± 0.043 | 0.00981 ± 0.0037
UCCUGCUUCAGCUUGCAAAGUAUUUAGUUA | 0.916 ± 0.041 | 0.0348 ± 0.0099
AGGACCUACAGCUUGCAUAGUAUUUAGUUUA | 1.27 ± 0.067 | 0.11 ± 0.019
UCCUGGAUCAGCUUGCAAUAGUAUUUAGUUA | 0.00794 ± 0.0031 | 0.00334 ± 0.0026
UCCACCUACUGCUUGCAUAGUAAUUAGUUA | 0.364 ± 0.025 | 0.018 ± 0.0036
UCCUCCUACACUUGCAUAGUAUUUAGUUA | 0.959 ± 0.044 | 0.0195 ± 0.0048
UGGACCUACAGCUUGCAUAGAAUUAAGUUA | 0.262 ± 0.033 | 0.0103 ± 0.0035
UCCUGGAUCAGUUUGCAUAGUAUUUAGUUA | 1.16 ± 0.048 | 0.0503 ± 0.0097
UCCUGGAUCAGGCUUGCAUAGUAUUUAGUUA | 0.833 ± 0.032 | 0.0744 ± 0.014
UCGACCUACAGCUUAGCAUAGUAUUUAGUUA | 1.59 ± 0.058 | 0.0251 ± 0.0054
UCGACCUACAGCUUGCAUAGUCAUUUAGUUA | 0.14 ± 0.044 | 0.00403 ± 0.0035
UCCUCCUACAGGUUGCAUAGUAUUUAGUUA | 0.963 ± 0.043 | 0.0283 ± 0.0052
UCCACCUACAGCUUGCUUAGAAUUUAGUUA | 0.2 ± 0.025 | 0.00583 ± 0.0018
UCGACCUACAGCUUGCAUAGUAUGUUAGUUA | 0.566 ± 0.031 | 0.0175 ± 0.0044
UCCUGGAUGUCGUGCAUAGUAUUUAGUUA | 0.031 ± 0.0083 | 0.00348 ± 0.0032
AGGACGUACAGCUUGCAUAGUAAUUAGUUA | 0.806 ± 0.062 | 0.0345 ± 0.0099
UCCACCUACAGCUUGCAUAGUAUUUUGUUA | 0.733 ± 0.061 | 0.0362 ± 0.0057
UCGACCUACAGCUUGCAUAGUAUGUAGUUA | 0.375 ± 0.059 | 0.0136 ± 0.0032
UGGACCAUACAGCUUGCAUAGUAUUUAGUUA | 1.3 ± 0.066 | 0.0868 ± 0.013
UCCUGGAUGAGCUCUGCAUAGUAUUUAGUUA | 0.457 ± 0.049 | 0.00909 ± 0.0027
UCCUGGUACAGCUUGCCUAGUAUUUAGUUA | 0.687 ± 0.064 | 0.0341 ± 0.0081
UCGAGGAACAGCUUGCAUAGUAUUUAGUUA | 1.02 ± 0.076 | 0.057 ± 0.011
AGGACCUACAGCUUGCAUAGUAUUUACUAA | 0.274 ± 0.036 | 0.0131 ± 0.0036
UCCUGGUACAGCUUGCAAACUAUUUAGUUA | 0.116 ± 0.019 | 0.00737 ± 0.0024
UCCUCCUACAGCUUGCUAUGUAUUUAGUUA | 0.145 ± 0.018 | 0.00383 ± 0.0014

Sequence | pre-steady-state target cleavage rate [1] | pre-steady-state target cleavage rate [2]
AGGACCUACAGGUUGGAUAGUAUUUAGUUA | 1.24 ± 0.079 | 0.0408 ± 0.0067
AGGUGGUACAGCUUGCAUAGUAUUUAGAAA | 0.19 ± 0.044 | 0.00559 ± 0.0016
AGCACCUACAGCUUGCAUAGUAAUUAGUUA | 1.01 ± 0.15 | 0.0278 ± 0.0099
UCCUGGAACAGCUUGCAUAGUGUUUAGUUA | 0.474 ± 0.029 | 0.0552 ± 0.01
UCCUGCUACAGCAUGCAUAGUUUUUAGUUA | 0.512 ± 0.043 | 0.0156 ± 0.0037
AGGACCUACAGCUUCCAUAGUAUUUAGUAA | 0.113 ± 0.024 | 0.0038 ± 0.0023
UCCUGCUACAGCUUGCAUAGUAUGUUAGUUA | 0.213 ± 0.034 | 0.00451 ± 0.0022
UGGACCAACAGCUUGGAUAGUAUUUAGUUA | 1.49 ± 0.054 | 0.0691 ± 0.011
UCGACCUACAGCUUGCAUUGUAUUUAGAUA | 0.39 ± 0.036 | 0.0102 ± 0.003
UCCUGGAUGAGCUUGCAUUGUAUUUACUUA | 0.0649 ± 0.016 | 0.00906 ± 0.0031
UGGACCAUCAGCUUGCAUAGUAUUUAGUAA | 1.05 ± 0.053 | 0.0577 ± 0.013
UGGACCUACAGCUUGCAAAGUAUUUACAAA | 0.125 ± 0.015 | 0.00411 ± 0.0022
UCCUGCUAGAGCUUGCAUAGUAUUUACUUA | 0.227 ± 0.038 | 0.012 ± 0.0029
UCCUGGAUGUGCUUGCUUAGUAUAUAGUUA | 0.0109 ± 0.0032 | 0.00495 ± 0.0019
UCCUGGAUCAGCUUGGAUAGUAUUUAGUAA | 0.332 ± 0.045 | 0.0253 ± 0.0056
UCCUGGAUCAGCUUGCAUAGUAAUUUGUUA | 0.302 ± 0.037 | 0.00656 ± 0.0022
UCGACCUACAGGUUGCAUAGUUUUUAGUUA | 0.258 ± 0.013 | 0.0179 ± 0.0032
UCCUCCUACAGCUAGCAUUGUAUUUAGUUA | 0.592 ± 0.023 | 0.00657 ± 0.002
UGGACCUACAGCUAGCAAAGUAUUUAGUUA | 1.16 ± 0.061 | 0.00736 ± 0.0025
UCGACGAUCAGCUUGCAUAGUAUUUUCAAA | 0.354 ± 0.032 | 0.00393 ± 0.0023
AGGACCUAGAGCUUGCAUAGUAUUUAGUAA | 0.876 ± 0.056 | 0.089 ± 0.025
UGGACCUUGAGCUUGCAUAGUAUUUAGAAA | 0.283 ± 0.034 | 0.00743 ± 0.0027
UCCAGGAACAGCUUGCAUAGUAUUUAGAAA | 0.359 ± 0.043 | 0.0116 ± 0.0031
UCCUCCUACAUCUUGCAUAGUAUUUAGUUA | 1.17 ± 0.038 | 0.0605 ± 0.01
UCCUGGAUGAUGCUUGCAUAGUAUUUAGUUA | 0.659 ± 0.043 | 0.0566 ± 0.01
